The values that follow come from PubChem BioAssay AID1963576 (National Center for Advancing Translational Sciences (NCATS), 2024).

Screen size: about 46,000 compounds; about 60 (0.1%) were called active. Another 3% or so got no clear call; they are omitted. The call rests on the fitted dose curve; in most records, active means well fitted inhibition curve with a large enough effect; inconclusive means small, poorly fitted or top-dose-only effect; inactive means no such curve, though single readings can be large or run the other way. This is one part of the list.

The test in a line: Primary qHTS assay for Inhibitors of ovarian cancer metastasis using an organotypic tumor microenvironment (TME) model. Further: nearly all actives have a fitted effect of over 65% in size.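 On activity change, negative = inhibition: plate controls were DMSO wells for no effect and tomatine positive control wells for full effect.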 To be noted: SKOV3ip1-GFP adhesion/invasion on 3D omental model, fluorescence; series mostly up to 45.8 µM; activity change, negative = inhibition: at the top concentration. In short, it runs like this: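 Primary human omental fibroblast/mesothelial 3D culture pre-formed 48 h. SKOV3ip1-GFP cells added with compounds (0.36-46 umol/L), incubated 2 h RT/16 h 37 C, fixed; GFP cells quantified at 488/509 nm.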
Background: In qHTS, concentration-response curves come from the screen itself.
With `CCc1ccc(NC(=O)c2cc(S(=O)(=O)N3CCCCCC3)ccc2F)cc1`, the “activity change, negative = inhibition” value was inactive: -9.64%. Still for that read-out and setting: the value for `Cc1ccc(NC(=O)Nc2nnc(SCC(=O)Nc3ccc(F)cc3F)s2)cc1` was inactive: -5.14%; that for `COc1ccccc1NC(=O)C(=O)c1cc(C)n(-c2ccccc2F)c1C` was inactive: -9.89%.

Take `Cc1cccc(C)c1NC(=O)c1csc2c1CCCC2`: the result was inactive. In the case of `O=C(NCCCc1nc2ccccc2n1Cc1cccc(Cl)c1)c1ccco1`, the “activity change, negative = inhibition” value was inactive: 22.4%. For `Cc1ccc(-n2ncc3c(NCCCN4CCOCC4)ncnc32)cc1Cl`, the “activity change, negative = inhibition” value is inactive: 0.113%. For `Cc1cccc(Cn2cc3c(=O)n(CC(=O)Nc4c(C)cccc4C)nc-3c3cc(F)ccc32)c1`, the “activity change, negative = inhibition” value was inactive: -0.154%. Same read-out and setting: next, `CCC1CCCCN1S(=O)(=O)c1ccc(NC(=O)c2cc(=O)c3c(C)cc(C)cc3o2)cc1` (stereo not drawn): inactive: 1.8%; `COc1cccc(N2CCN(c3c4c(nc5nncn35)CCC4)CC2)c1`: inactive: -4.5%; `COCCCNC(=O)NC(CCC(C)C)c1c(-n2cccc2)sc2c1CCN(C)C2` (stereo not drawn): inactive: -2.2%.

Turning to `Cc1c(Cl)cccc1NC(=O)CCCn1nc(C)c2sc3ccccc3c2c1=O`, the “activity change, negative = inhibition” value was inactive: -10.7%.

On to `Cc1nnc(C)n1-c1ccc(C(=O)Nc2cccc(Br)c2)cc1`, for which the “activity change, negative = inhibition” value was inactive: -23.2%.

For the compound `O=C(NCCN1CCN(c2ccccc2)CC1)Nc1cccc(Br)c1`, the “activity change, negative = inhibition” value is inactive: -31.4%. Take `Cc1ccc(NC(=O)C2CCN(S(=O)(=O)c3c(C)noc3C)CC2)cc1`: the compound was called inactive. `CC1(C)CC(=O)c2cc(-c3nc(-c4ccccc4)cs3)c(=O)[nH]c2C1`: the “activity change, negative = inhibition” value was inactive: -3.49%. With `CCCCCCCCc1ccc(CCC(N)(CO)CO)cc1`, the “activity change, negative = inhibition” value was inactive: -22.4%. For the compound `COC(=O)c1cc2oc3ccccc3c2n1Cc1nc(-c2ccccc2Cl)oc1C`, the outcome was inactive.

Consider `CC(C)Sc1nc2sc3c(c2c(=O)n1Cc1ccccc1)CCCC3`, for which the “activity change, negative = inhibition” value was inactive: -9.2%. Take `CCOc1ccc(CCNC(=O)CCc2c(C)nc3c(c(C)nn3-c3ccc(C)c(C)c3)c2C)cc1`: the “activity change, negative = inhibition” value is inactive: -4.35%. On to `CC(=O)O[C@H]1C[C@@H]2CC[C@H]3[C@H]4C[C@H]([N+]5(C)CCCCC5)[C@@H](OC(C)=O)[C@@]4(C)CC[C@@H]3[C@@]2(C)C[C@H]1N1CCCCC1`, for which the “activity change, negative = inhibition” value is inactive: -6.43%. `CCOc1ccc(NC(=O)CSc2nc3ccsc3c(=O)n2C(C)CC)cc1` (stereo not drawn): the call was inactive. On to `CCOc1ccccc1CNC(=O)Cc1ccc(NC(=O)N2CCCCc3ccccc32)cc1`, for which the “activity change, negative = inhibition” value was inactive: 8.28%. On the same count and under the same terms, next, `COc1ccc(Nc2nc(-c3cccc(Cl)c3)c3c(n2)-c2ccccc2OC3)cc1`: inactive: 2.39%. The same measure, in the same setting: next, `CCOC(=O)c1cnc2c(C)c(Cl)ccc2c1NCCc1ccc(OC)c(OC)c1`: inactive: -9.44%. `CCOc1cccc(Nc2nn(-c3ccc(OC(F)(F)F)cc3)nc2C(C)=O)c1`: the call was inactive. Take `Cc1ccc2nc(NCc3ccccc3)c3nnnn3c2c1`: the call was inactive. `CCCCNS(=O)(=O)c1ccc2nc(-c3cccnc3)cc(C(=O)NCCCOC(C)C)c2c1`: the “activity change, negative = inhibition” value was inactive: -6.78%. Turning to `Cc1cccc2c1-c1sc(C(=O)N3CCN(c4ccccc4)CC3)cc1CO2`, the “activity change, negative = inhibition” value is inactive: 1.77%. Same read-out and setting: next, `CCOC(=O)C=C[C@H](C[C@@H]1CCNC1=O)NC(=O)[C@@H](CC(=O)[C@@H](NC(=O)c1cc(C)on1)C(C)C)Cc1ccc(F)cc1`: inactive: -6.99%. Consider `COc1ccc(-c2noc(N3CCC(C(=O)N4CCN(c5ccccc5OC)CC4)CC3)n2)cc1`, for which the compound was classed as inactive. In the case of `CCCCN(C)CCNC(=O)c1ccc(Cn2c(=O)[nH]c3cc(OC)c(OC)cc3c2=O)cc1`, the result was inactive. Consider `CCOC(=O)c1ccc(NC(=O)C2CC(=O)NC(=Nc3ccc(C)c(C)c3)S2)cc1` (stereo not drawn), for which the “activity change, negative = inhibition” value was inactive: 0.239%.

On to `COc1ccccc1CNC(=O)Cn1c(=O)oc2cc(S(=O)(=O)N3CCCC3)ccc21`, for which the “activity change, negative = inhibition” value was inactive: -5.5%. Same read-out and setting: the value for `COc1ccccc1CNC(=O)c1cccc(N2CCCS2(=O)=O)c1` was inactive: -6.9%. In the case of `CCc1ccc(CNC(=O)c2ccc3c(Cl)c4c(nc3c2)CCCC4)cc1`, the outcome was inactive. In the case of `CCc1nc2nc(C)cc(Nc3cc(Cl)ccc3C)n2n1`, the “activity change, negative = inhibition” value was inactive: 8.53%. `COc1ccc(Br)cc1C(=O)Nc1cccc2ccc(C)nc12`: the “activity change, negative = inhibition” value is inactive: -0.102%. With `COc1cc(-c2nc(S(=O)(=O)c3ccc(Br)cc3)c(N3CCOCC3)o2)cc(OC)c1OC`, the “activity change, negative = inhibition” value was inactive: 3.05%. Still for that read-out and setting: next, `COc1ccc(-c2noc(N(c3ccc(F)c(Cl)c3)c3nc(-c4ccc(OC)c(OC)c4)no3)n2)cc1OC`: inactive: -8.83%; `CC(=O)Nc1ccc(NC(=O)C2CCCN(S(=O)(=O)c3ccc4c(c3)CCCC(=O)N4)C2)cc1` (stereo not drawn): inactive: 9.17%.

On to `Cc1cc(N2CCN(c3cccc(C)c3C)CC2)n2cnnc2n1`, for which the call was inactive.

With `CCOC(=O)c1cnn(-c2ccc(C(=O)Nc3ccc(OC(F)(F)F)cc3)cc2)c1N`, the “activity change, negative = inhibition” value is inactive: 8%. The same measure, in the same setting: next, `Cc1nn(CC(=O)NCc2ccc(F)cc2)c2ccccc12`: inactive: 12.9%; `CCCN(Cc1cccs1)C(=O)Nc1cc(Cl)ccc1C`: inactive: 16.7%; `Cc1ccc2[nH]c3c(=O)n(CC(=O)NCc4ccco4)ncc3c2c1`: inactive: -6.05%. Consider `COc1ccc(Cl)cc1NC(=O)Cn1ncc2c3ccccc3n(C)c2c1=O`, for which the “activity change, negative = inhibition” value is inactive: 0.659%. The same measure, in the same setting: the value for `CCOC(=O)c1cccc(NC(=O)CCCn2nc(C)c3c(C)n(-c4ccccc4)nc3c2=O)c1` was inactive: 0.757%. Take `CCOC(=O)c1ccc2nc(C)cc(Nc3cccc(C(=O)O)c3)c2c1`: the result was inactive.
